# Measured values reported in PubChem BioAssay AID1347165 (National Center for Advancing Translational Sciences (NCATS), 2019).
# Several values for one entry are separate records, joined by “and”; a condition that tells them apart may be missing. Equal values may be shown once. The whole screen tested about 220,000 compounds, of which about 5,700 (2.6%) were called active. Inconclusive results, whose numbers are uncertain, are shown with a selection of clear calls. Calls come from the whole dose curve; as a rule, active = well fitted inhibition curve with a large enough effect; inconclusive = small, poorly fitted or top-dose-only effect; inactive = no such curve, though single readings can be large or run the other way. Where the call is inconclusive, the potency comes from a doubtful curve fit.
# Biological target: Lysine-specific demethylase 5B (Homo sapiens) (UniProt Q9UGL1)
# Assay: Primary screen for KDM5B Histone Demethylases FDH-coupled qHTS; note: nearly all actives have a fitted effect of over 70% in size; for activity change, negative = inhibition: 0% is about no effect
# Conditions: FDH-coupled NADH fluorescence (FDH is formaldehyde dehydrogenase); activity change, negative = inhibition: at 57.7 µM (top of the series) unless noted
# Summary of the method: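 Measured: NADH fluorescence change, 30 min, RT. System: KDM5BΔAP 200 nM final, H3K4me3 peptide, α-KG, Fe(II), ascorbate, NAD⁺ plus FDH, pH 7.5 HEPES. Compounds: titrated, 10 min pre-incubation with enzyme.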
# Potency is the fitted concentration of half-maximal effect; tags give direction and shape of the fitted curve.
# UniProt Q9UGL1, sequence (Q9UGL1 whole entry, looked up): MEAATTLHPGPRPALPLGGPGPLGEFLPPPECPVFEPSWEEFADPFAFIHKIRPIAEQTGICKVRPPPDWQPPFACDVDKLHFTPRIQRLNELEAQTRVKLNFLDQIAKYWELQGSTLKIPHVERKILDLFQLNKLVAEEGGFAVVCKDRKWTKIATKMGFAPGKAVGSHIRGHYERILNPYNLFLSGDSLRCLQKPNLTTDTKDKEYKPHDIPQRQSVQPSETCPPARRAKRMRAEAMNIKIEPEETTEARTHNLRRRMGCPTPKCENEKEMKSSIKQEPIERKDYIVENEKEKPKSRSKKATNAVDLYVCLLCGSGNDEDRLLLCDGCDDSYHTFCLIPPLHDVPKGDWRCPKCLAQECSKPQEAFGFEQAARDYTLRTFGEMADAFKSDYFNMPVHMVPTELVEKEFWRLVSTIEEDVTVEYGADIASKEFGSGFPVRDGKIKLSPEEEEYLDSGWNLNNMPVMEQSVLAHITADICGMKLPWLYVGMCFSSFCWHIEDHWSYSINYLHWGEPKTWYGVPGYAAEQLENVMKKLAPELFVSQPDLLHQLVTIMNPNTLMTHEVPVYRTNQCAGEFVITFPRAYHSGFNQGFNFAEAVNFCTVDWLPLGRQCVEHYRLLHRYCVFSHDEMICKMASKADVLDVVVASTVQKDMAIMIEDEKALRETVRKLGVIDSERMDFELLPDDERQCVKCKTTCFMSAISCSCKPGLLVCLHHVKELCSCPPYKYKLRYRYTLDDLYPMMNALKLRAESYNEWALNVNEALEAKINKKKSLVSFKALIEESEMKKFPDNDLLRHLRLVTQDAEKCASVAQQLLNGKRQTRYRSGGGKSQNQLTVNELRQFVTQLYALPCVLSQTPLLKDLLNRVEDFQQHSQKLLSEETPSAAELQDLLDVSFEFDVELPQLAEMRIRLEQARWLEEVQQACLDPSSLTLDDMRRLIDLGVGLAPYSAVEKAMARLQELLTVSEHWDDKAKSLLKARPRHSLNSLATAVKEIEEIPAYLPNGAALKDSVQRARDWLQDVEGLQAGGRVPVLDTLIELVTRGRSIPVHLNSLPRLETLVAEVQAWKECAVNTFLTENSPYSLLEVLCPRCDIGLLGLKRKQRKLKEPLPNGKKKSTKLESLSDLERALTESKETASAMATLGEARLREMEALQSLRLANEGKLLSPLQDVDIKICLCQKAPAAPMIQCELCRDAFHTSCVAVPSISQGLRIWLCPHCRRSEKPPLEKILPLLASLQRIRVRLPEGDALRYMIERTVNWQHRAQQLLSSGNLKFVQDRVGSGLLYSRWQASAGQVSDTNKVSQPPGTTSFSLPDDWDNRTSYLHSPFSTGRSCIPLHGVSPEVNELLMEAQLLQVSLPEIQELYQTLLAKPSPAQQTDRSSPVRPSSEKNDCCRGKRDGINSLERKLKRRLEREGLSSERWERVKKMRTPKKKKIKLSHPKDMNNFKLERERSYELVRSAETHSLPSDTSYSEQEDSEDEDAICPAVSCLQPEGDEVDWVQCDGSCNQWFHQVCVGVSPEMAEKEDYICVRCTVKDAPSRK
Structure (SMILES),"activity change, negative = inhibition",Potency
CCN(CC)S(=O)(=O)c1ccc(C(C)NC(=O)c2nn(CC)c(=O)c3ccccc23)cc1 (stereo not given),inactive: 10.2%,–
Clc1cccc(CSc2nncn3c2cc2sccc23)c1,–,"inconclusive: 14.1 µM [inhibitor, partial curve, poor fit]"
COCCNc1ncc(-c2cccc(OC)c2)c2c1OCC2,–,active: 35.5 µM
CC(O)CNC(=O)Nc1sc2c(c1C#N)CC(C)(C)OC2 (stereo not given),inactive: 15.5%,–
Cc1cccc(NC(=O)N2CCCC2c2cccs2)c1C (stereo not given),inactive: -7.85%,–
Cc1cc(=O)oc2cc(OCC(=O)NCc3ccccn3)ccc12,–,"inconclusive: 28.2 µM [inhibitor, single point]"
O=C(NCc1nnc2ccc(-c3ccc(F)cc3)nn12)c1cccc(C(F)(F)F)c1,–,active: 28.2 µM
CCCCC(=O)Nc1cccc(-c2nc3ncccc3o2)c1C,–,"inconclusive: 20 µM [inhibitor, partial curve, poor fit] and inconclusive: 31.6 µM [inhibitor, partial curve, poor fit]"
Cc1n[nH]c(C)c1C(N)C(=O)N1CCCN(CCCN2CCCC2)CC1 (stereo not given),–,"inconclusive: 14.1 µM [inhibitor, partial curve, poor fit]"
COc1cccc(C(=O)Oc2ccc(C3SCCS3)cc2OC)c1,–,"inconclusive: 28.2 µM [inhibitor, partial curve, poor fit]"
Cc1ccccc1-c1nc(CS(=O)CC(=O)N2CCN(c3cc(Cl)ccc3C)CC2)c(C)o1 (stereo not given),–,"inconclusive: 28.2 µM [inhibitor, single point]"
O=c1c2cnc3nc(-c4ccncc4)nn3c2ccn1CCN1CCCCC1,–,"inconclusive: 11.2 µM [inhibitor, partial curve, poor fit]"
OC1(CN2CCN(c3cnccn3)CC2)CNCCOC1 (stereo not given),–,"inconclusive: 20 µM [inhibitor, partial curve, poor fit]"
Cc1cccn2c(=O)c(C(=O)NCc3ccccc3Cl)c(O)nc12,inactive: -7.13%,–
COc1cccc(N2CCN(C(=O)c3cc4c(=O)n(Cc5ccccc5)ccc4nc3C)CC2)c1,–,"inconclusive: 1.78 µM [inhibitor, full curve, poor fit]"
CN1CCC(Nc2ccc3c(n2)CN(Cc2ccc(F)cc2)C(=O)CO3)CC1,–,"inconclusive: 22.4 µM [inhibitor, partial curve, poor fit]"
Cc1ccc(Cn2c(C3CCN(C(=O)c4cccc(F)c4)CC3)n[nH]c2=O)cc1,inactive: 16.8%,–
COCCN1Cc2ccc(NCC(C)C)nc2C(C)(C(=O)NC2CCC2)C1 (stereo not given),–,"inconclusive: 28.2 µM [inhibitor, single point]"
CC(=O)c1c(C)[nH]c(C(=O)C(C)Sc2ccc(F)c(Cl)c2)c1C (stereo not given),inactive: -11.2%,–
CCOc1ccc(-n2nc(CO)c(C(=O)NCc3cccnc3)n2)cc1,–,"inconclusive: 28.2 µM [inhibitor, partial curve, poor fit]"
CNCCN1C(=O)CC[C@H]2CN(C(=O)c3ccnc(NC)c3)CC[C@H]21,–,active: 25.1 µM
CCOC(=O)c1ccccc1NS(=O)(=O)c1ccc(N2CCCCS2(=O)=O)cc1,–,"inconclusive: 39.8 µM [inhibitor, single point]"
O=c1cc(N2CCOCC2)oc2c(-c3ccc(F)c(Cl)c3)nccc12,–,active: 20 µM
COC(=O)c1ccccc1NC(=O)CN1C(=O)NC2(CCCCC2)C1=O,–,"inconclusive: 39.8 µM [inhibitor, single point]"

Structure (SMILES),"activity change, negative = inhibition",Potency
CCN(CC)c1nc2ccccc2nc1C(=O)Nc1ccc(OC)c(OC)c1,inactive: -1.52%,–
OCC(O)CNc1nccc(C2(c3ccccc3Cl)CCNCC2)n1 (stereo not given),inactive: -27.3%,–
COc1ccc(Cn2c(-c3cccc(Cl)c3)nc(C)c(CCO)c2=O)cc1F,–,"inconclusive: 5.62 µM [inhibitor, partial curve]"
Cc1n[nH]c(=O)nc1SCC(=O)Nc1ccc(C(=O)OC(C)C)cc1,inactive: -26.4%,–
COc1cccc(CNC(=O)[C@@H]2C[C@@H](O)CN2C2CCN(C(=O)CCn3nc(C)cc3C)CC2)c1,inactive: -18.8%,–
CN1CCN(c2oc(/C=C/c3ccc(F)cc3)nc2C#N)CC1,–,"inconclusive: 31.6 µM [inhibitor, partial curve, poor fit]"
CC(C)S(=O)(=O)c1oc(-c2ccc(F)cc2)nc1S(=O)(=O)c1ccccc1,–,"inconclusive: 5.01 µM [inhibitor, partial curve, poor fit]"
COCCN1C(=O)CO[C@H]2CN(c3nccc(OC)n3)C[C@H]21,–,"inconclusive: 31.6 µM [inhibitor, partial curve, poor fit]"
Cc1ccc(C)c(-n2nnc(C(=O)NC(C)C)c2N)c1,inactive: -4.87%,–
O=c1cc(-c2ccccc2)nc2n(Cc3cccc(F)c3)c3ccccc3n12,inactive: -4.96%,–
COc1cc(OC)cc(C(=O)N[C@@H]2CN(S(C)(=O)=O)C[C@H]2CN(C)C)c1,–,"inconclusive: 31.6 µM [inhibitor, partial curve]"
CCOc1ccc(C2NC(=O)N(CC)C3=C2C(=O)OC3)cc1 (stereo not given),inactive: 2.94%,–
O=C(CCn1nnc2ccccc21)N1CCOCC(O)(CN2CCCC2)C1 (stereo not given),–,"inconclusive: 39.8 µM [inhibitor, single point]"
Cc1ccc(N(C)C(=O)c2cc(-c3ccco3)nc3ccccc23)cc1,–,"inconclusive: 35.5 µM [inhibitor, single point]"
Cc1ccc(-c2ccc(/C=N/n3cnnc3)o2)cc1,–,"inconclusive: 39.8 µM [inhibitor, single point]"
O=C(NCCc1cccnc1)c1ccc(F)cc1,inactive: 3.49%,–
N#Cc1ccc(C2c3nc[nH]c3CCN2Cc2ccc3ccccc3n2)cc1 (stereo not given),–,"inconclusive: 12.6 µM [inhibitor, partial curve]"
CN(CC(=O)N1CCC2(CCNCC2)CC1)Cc1cccnc1,–,"inconclusive: 28.2 µM [inhibitor, single point]"
Cc1ccc(NC(=O)CSc2c3c(nc4ccccc24)CCCC3)cc1F,–,"inconclusive: 31.6 µM [inhibitor, single point]"
C/C(=N\NC(=O)c1ccccc1N)c1ccc(NC(=O)Cc2ccccc2)cc1,–,"inconclusive: 39.8 µM [inhibitor, partial curve, poor fit]"
CNC(=O)c1ccc(N(Cc2ccc(C)cc2)S(C)(=O)=O)cc1,inactive: 13.3%,–
Cc1cccc(NC(=O)c2sc3nc4c(cc3c2N)CCCCCC4)c1C,–,"inconclusive: 35.5 µM [inhibitor, partial curve, poor fit]"
C[N+]1(C)CCNCC1,inactive: 10.8%,–
Fc1ccc(OCC2CCCN(c3ccc(Cn4ccnc4)cn3)C2)cc1 (stereo not given),–,"inconclusive: 25.1 µM [inhibitor, partial curve, poor fit]"

Structure (SMILES),"activity change, negative = inhibition",Potency
Cn1nnnc1SCCNCc1ccc(OCc2ccccc2Cl)cc1,inactive: -23.3%,–
Cc1ccc(N(C)S(=O)(=O)c2ccc3[nH]c4c(c3c2)CCCC4)cc1,–,"inconclusive: 39.8 µM [inhibitor, single point]"
COc1cc(-c2nc(C3CC(=O)N(c4ccc(Cl)cc4)C3)no2)cc(OC)c1OC (stereo not given),–,"inconclusive: 35.5 µM [inhibitor, single point]"
CN1CCN(CC(=O)c2ccccc2F)CC1,–,"inconclusive: 15.8 µM [inhibitor, partial curve, poor fit]"
Cc1cc(=O)oc2cc(NC(=O)Cc3ccc(Cl)c(Cl)c3)ccc12,–,"inconclusive: 39.8 µM [inhibitor, single point]"
CCN(Cc1cccnc1)C(=O)c1cc(-c2cnn(CC)c2)nc2cc(C)ccc12,–,"inconclusive: 20 µM [inhibitor, partial curve, poor fit]"
Cc1cc(=O)oc2cc(OCC(=O)N(C)Cc3cccs3)c(Cl)cc12,–,"inconclusive: 28.2 µM [inhibitor, partial curve, poor fit]"
O=C(CSc1ccccc1)NCc1ccc2c(c1)CCN2C(=O)c1ccc(Cl)cc1,–,"inconclusive: 15.8 µM [inhibitor, partial curve, poor fit]"
Cc1cc(=O)n2[nH]nnc2n1,–,"inconclusive: 25.1 µM [inhibitor, single point]"
Cc1cn2nc(C(=O)N3CCN(C(=O)c4ccco4)CC3)cc2c(N2CCCC2)n1,–,active: 31.6 µM
CCC1(CC)NC(=O)N(Cc2coc(-c3ccc(Cl)cc3)n2)C1=O,inactive: 14.1%,–
COc1cccc(Nc2cc(-c3cccs3)nc3c(C)noc23)c1,–,active: 35.5 µM
O=C(CCc1ncc(-c2ccccc2)o1)Nc1ccc(N2CCOCC2)cc1N1CCOCC1,inactive: 11.1%,–
COc1ccc(C(=O)NCc2nnc3ccc(-c4ccc(C)c(C)c4)nn23)cc1,–,active: 20 µM
CCCCN1C(=O)c2ccccc2C(C(=O)Nc2ccccn2)C12CCCC2 (stereo not given),inactive: -17.3%,–
O=C(CCc1ccsc1)N1CCCC(C(F)(F)F)C1 (stereo not given),inactive: 26.2%,–
Cc1ccc(C(=O)Nc2nnc(C3=COCCO3)o2)cc1C,–,"inconclusive: 25.1 µM [inhibitor, partial curve, poor fit]"
Cc1[nH]c2ccccc2c1C(C[N+](=O)[O-])c1ccc(C(F)(F)F)cc1 (stereo not given),inactive: -22.7%,–
Cc1nnc(N2CCCC(C(=O)Nc3cccc(C(F)(F)F)c3)C2)c2nn(-c3ccccc3)c(C)c12 (stereo not given),–,"inconclusive: 39.8 µM [inhibitor, single point]"
COc1ccc(N(Cc2cccs2)C(=O)Cn2cnc3ccc(Cl)cc3c2=O)cc1,inactive: -0.392%,–
O=C(Nc1cccc(Cl)c1)c1cc(-c2ccc3c(c2)OCCO3)on1,–,"inconclusive: 15.8 µM [inhibitor, partial curve, poor fit]"
Cc1cccc(C(=O)Nc2cccc(OCc3cc(=O)n4cccc(C)c4n3)c2)c1,–,"inconclusive: 28.2 µM [inhibitor, partial curve, poor fit]"
